# The campaign covered roughly 420,000 compounds. About 50,000 (12%) were called active. This list was built around the results that the source calls inconclusive (neither active nor inactive); the mix of calls is not that of the screen. The call rests on the fitted dose curve; in most records, active means well fitted inhibition curve with a large enough effect; inconclusive means small, poorly fitted or top-dose-only effect; inactive means flat fitted curve, though single readings scatter. No potency is given beside an inconclusive call; the fits are too rough.
# Assay: qHTS for Inhibitors of human tyrosyl-DNA phosphodiesterase 1 (TDP1): qHTS in cells in presence of CPT; further: nearly all actives have a fitted effect of over 55% in size
# Conditions: chicken DT40 Tdp1-/-;hTDP1 cells + 20 nM CPT, ATP luminescence, 48 h; series mostly up to 46.2 µM
# Outline: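 Chicken DT40 Tdp1-/- cells complemented with human TDP1, 400 cells/well, exposed to compounds plus 20 nM camptothecin for at least 48 h at 37 C; viability read as ATP content by CellTiter-Glo luminescence.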
# Potency means the concentration at half of the fitted maximal effect; tags describe the fitted curve by direction and shape.
row,SMILES,Potency
1,CC(NC(=O)C1=CC=CN2CCS(=O)(=O)N=C12)c1ccc(Cl)c(Cl)c1 (stereo unspecified),inactive
2,CCOC(=O)N1CCN(CC(O)c2c[nH]c3ccccc23)CC1 (stereo unspecified),"inconclusive [inhibitor, partial curve]"
3,N#CC(=Cc1ccc(O)cc1)C(N)=C(C#N)C#N,inactive
4,Cc1cccc(C)c1OCc1cc(C(=O)NCC2CC2)no1,"inconclusive [inhibitor, single point]"
5,COC(=O)c1ccc2nc(C3CCCCC3)c(Cc3ccc(C)cc3)n2c1,active: 25.9 µM
6,COc1cc(-c2noc(C)c2C(=O)NCC[C@@H]2CCCN2C)cc(OC)c1OC,inactive
7,Cc1ccc(N2C(=O)CS/C2=N\C(=S)Nc2ccccc2)cc1,"inconclusive [inhibitor, full curve]"
8,COc1c(OC)c(O)c2c(=O)c(O)c(-c3ccccc3)oc2c1OC,inactive
9,CCOC(=O)c1ccc(-c2ccc(/C=N/NC(=O)CN(c3ccccc3Cl)S(C)(=O)=O)o2)cc1,"inconclusive [inhibitor, single point]"
10,CC(C)Oc1ccc(CN2CCC2(C)C(=O)Nc2cnc3ccccc3c2)cc1 (stereo unspecified),active: 18.4 µM
11,Cc1c(Cl)cccc1-n1nc(C)c2c(C)cc(=O)n(CC(=O)N3CCCc4ccccc43)c21,active: 14.6 µM
12,Cc1ccc(NC(=O)NC2CCCCC2)cc1S(=O)(=O)N1CCOCC1,"inconclusive [inhibitor, single point]"
13,CCN(CC)C(=O)c1ccc2c(c1)nnn2C,inactive
14,COc1cccc(-c2nnc(SCC(=O)N3CC(C)CC(C)C3)o2)c1 (stereo unspecified),"inconclusive [inhibitor, single point]"
15,O=C(Nc1ccsc1C(=O)N1CCCCCC1)c1ccccc1,"inconclusive [inhibitor, single point]"
16,Cn1cncc1C#Cc1ccc2cc(CCO)oc(=O)c2c1,inactive
17,OCCC1CN(Cc2nc3c(s2)CCCC3)CCN1CCc1ccccc1 (stereo unspecified),"inconclusive [inhibitor, partial curve, poor fit]"
18,COc1ccc(-c2nc3ccccc3n3c(-c4ccc(OC)cc4)c4c(=O)n(C)c(=O)n(C)c4c23)cc1,"inconclusive [inhibitor, single point]"
19,O=C(NC(Cc1c[nH]c2ccccc12)C(=O)Nc1ccc(F)c([N+](=O)[O-])c1)c1cccs1 (stereo unspecified),"inconclusive [inhibitor, single point]"
20,COc1ccccc1N1CCN(C(=O)C2CCN(S(=O)(=O)c3ccc(F)cc3)CC2)CC1,inactive
21,C/C(=N/NC(=O)c1sc(=S)n(C)c1C)c1ccccc1,"inconclusive [inhibitor, single point]"
22,CCOC(=O)c1sc2ccc(S(=O)(=O)N3CCOCC3)cc2c1N,"inconclusive [inhibitor, single point]"
23,Cc1cc2oc3c(c(=O)c2cc1C)C(c1ccc(C(C)C)cc1)N(c1nc(C)c(C)s1)C3=O (stereo unspecified),inactive
24,Cc1cc(C)cc(NC(=O)C(c2ccccc2)N2CCN(CC(=O)NC3CC3)CC2)c1 (stereo unspecified),inactive

row,SMILES,Potency
1,CN1CCN(c2nc(Nc3cccc(C(F)(F)F)c3)nc(N3CCOCC3)n2)CC1,"inconclusive [inhibitor, single point]"
2,CCCOc1ccc(CNC(=O)C2CCN(C(=O)c3sccc3-n3cccc3)CC2)cc1,"inconclusive [inhibitor, single point]"
3,S=C(NCc1ccco1)N1CCN(c2cccc(Cl)c2)CC1,"inconclusive [inhibitor, single point]"
4,Clc1ccc(C2=NN=C3COc4ccccc4N3C2)cc1,"inconclusive [inhibitor, single point]"
5,CCNC(=O)C1CC(=O)N(CCCc2ccccc2)C(=Nc2ccccc2)S1 (stereo unspecified),"inconclusive [inhibitor, single point]"
6,CC(=O)O[C@H]1CC[C@@]2(C)[C@@H](CC[C@H]3[C@@H]4CC[C@H](C(C)O)[C@@]4(C)CC(=O)[C@@H]32)C1 (stereo partly specified),inactive
7,CC1(C)OC2COC(c3[nH]nc4c(=O)[nH]c(=O)[nH]c34)C2O1 (stereo unspecified),inactive
8,Cc1c(C)[n+](=O)c(-c2cccs2)c(C)n1[O-],inactive
9,Cc1ccccc1CNC(=O)c1ccc2ccccc2n1,"inconclusive [inhibitor, single point]"
10,O=C(OCC(=O)N1CCN(C(=O)c2ccco2)CC1)c1ccc(Cl)c(Cl)c1,inactive
11,COc1cccc(-c2c(C(=O)N/N=C/c3cccs3)nnn2-c2nonc2N)c1,"inconclusive [inhibitor, single point]"
12,CCOC(=O)c1ccc2c(c1)N(Cc1ccc(F)cc1Cl)C(=O)c1ccccc1S2,"inconclusive [inhibitor, single point]"
13,OC(c1ccc(Cl)cc1)c1ncc(-c2cccc(C(F)(F)F)c2)[nH]1 (stereo unspecified),"inconclusive [inhibitor, partial curve, poor fit]"
14,COc1cc(C(=O)OCCc2cc3ccccc3c(=O)o2)cc(OC)c1OC,active: 4.11 µM
15,Cc1cccc(C(=O)Nc2ccc(N3CCC(N4CCCCC4)CC3)c(C(=O)O)c2)c1,inactive
16,O=C(NCCCn1ccnc1)c1nc(Cn2cc([N+](=O)[O-])cn2)no1,"inconclusive [inhibitor, single point]"
17,CCN1C(=Nc2ccc(Cl)cc2)SC/C1=C\C(=O)OC,"inconclusive [inhibitor, partial curve]"
18,CCn1c(CNC(=O)c2ccccc2Br)nnc1SCC(=O)Nc1nncs1,inactive
19,COc1ccc2oc(-c3ccc(O)cc3)cc(=O)c2c1,"inconclusive [inhibitor, single point]"
20,COc1ccc(-n2c(SCC(=O)Nc3ccccc3)nnc2-c2ccoc2C)cc1,"inconclusive [inhibitor, partial curve]"
21,COc1ccc(C(=O)NC(C)C2CC3CCC2C3)cc1 (stereo unspecified),"inconclusive [inhibitor, single point]"
22,Cc1ccc2sc(=O)[nH]c2c1,inactive
23,O=[N+]([O-])c1ccc(O)c(/C=N\N=C2c3ccccc3-c3ccccc32)c1,active: 23.1 µM
24,N#CC1=C(SCC(=O)NC2CCCCC2)NC(=O)CC1c1ccco1 (stereo unspecified),"inconclusive [inhibitor, partial curve, poor fit]"

row,SMILES,Potency
1,CN1CC(c2ccccn2)C2(SC(=S)N(Cc3ccccc3)C2=O)C12C(=O)Nc1ccccc12 (stereo unspecified),"inconclusive [inhibitor, single point]"
2,O=C(NCCO)c1ccc2[nH]c3ccccc3c2c1,inactive
3,COc1ccc(C2CC(=O)Oc3ccc(C(C)(C)C)cc32)cc1 (stereo unspecified),inactive
4,COc1cccc(-c2nnc(NC(=O)c3ccco3)s2)c1,inactive
5,COc1ccc(CN2CCCC(C(=O)c3ccc(Cl)cc3)C2)cc1Cn1cccn1 (stereo unspecified),"inconclusive [inhibitor, single point]"
6,Cc1ccc(C)c(NC(=O)c2nc(-c3ccccc3)n(-c3ccccc3)n2)c1,"inconclusive [inhibitor, single point]"
7,O=C1N=C(N2CCOCC2)S/C1=C/c1ccc(-c2ccccc2Cl)o1,"inconclusive [inhibitor, partial curve]"
8,Cc1ccc(C)n1-c1nnc(N2CCCC(C(=O)NCc3cccc(Br)c3)C2)s1 (stereo unspecified),"inconclusive [inhibitor, single point]"
9,Cc1cccc(CN2CCN(CC(=O)Nc3c(C)cccc3C)S2(=O)=O)c1,"inconclusive [inhibitor, single point]"
10,O=C(/C=C/c1cccc([N+](=O)[O-])c1)N1CCN(Cc2ccc3c(c2)OCO3)CC1,"inconclusive [inhibitor, single point]"
11,CC(=O)Nc1ccc(/C=C/c2nc3ccccc3s2)cc1,"inconclusive [inhibitor, single point]"
12,Nc1c(C(=O)C2CC2)sc2nc(-c3ccccc3)cc(C(F)(F)F)c12,inactive
13,Cc1ccc(S(=O)(=O)c2n[nH]n3c2nc(=O)c2ccccc23)cc1,inactive
14,Cc1cccc(Nc2ccccc2C(=O)OCC(=O)NCc2ccco2)c1C,"inconclusive [inhibitor, single point]"
15,Cc1cc(NC(=O)CSc2nc3ccccc3c(=O)n2C(C)c2ccccc2)no1 (stereo unspecified),"inconclusive [inhibitor, single point]"
16,CC1=C(C(=O)NCc2ccc(Cl)cc2)C2(CCC(C)CC2)OC1=O (stereo unspecified),"inconclusive [inhibitor, single point]"
17,CCN(CC(=O)Nc1ccc(NC(C)=O)cc1)C(=O)c1ccc(N2CCC(C)CC2)c([N+](=O)[O-])c1,inactive
18,C=CCOc1ccccc1CN1CCC(n2nccc2NC(=O)c2ccccc2)CC1,inactive
19,C[C@@H]1CCCCO[C@H](CN(C)S(=O)(=O)c2cccs2)[C@H](C)CN([C@@H](C)CO)C(=O)c2cc(NC(=O)NC3CCCCC3)ccc2O1,active: 18.4 µM
20,CCN(C(=O)COC(=O)c1ccco1)c1c(N)n(Cc2ccccc2)c(=O)[nH]c1=O,inactive
21,CCNc1nc(-c2ccc(Cl)cc2)cs1,"inconclusive [inhibitor, single point]"
22,COc1ccc(C(C(=O)NCc2ccccc2)N(Cc2ccco2)C(=O)c2cnccn2)cc1 (stereo unspecified),"inconclusive [inhibitor, single point]"
23,CN(C)CCn1c(=O)n(C2CCCCC2)c(=O)c2c3c(sc21)CCCCC3,inactive
